Our source for the activation values is PubChem BioAssay AID1346428 (National Center for Advancing Translational Sciences (NCATS), 2018).

“And” between values parts separate entries of the source, which are not always exact repeats. Identical values can stand only once. The whole screen tested about 48,000 compounds, of which about 1,200 (2.5%) were called active. Inconclusive results (about 2%) are left out.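 Rule for the calls: active = activation of at least 60% and not above a set upper limit (about 1 call in 100 departs from these limits); inconclusive = activation of 40% to 60%, or above that upper limit; inactive = activation under 40%.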 The list shows a part of the results.

This assay has as its target Probable G-protein coupled receptor 32 (Homo sapiens) (UniProt O75388). The experiment in a line: qHTS for Agonists of Human Resolvin D1 Receptor DRV1. Note: 0% is about no effect. Conditions: CHO-K1 GPR32 beta-arrestin PathHunter luminescence, 90 min; at 76.9 µM; stronger effect = higher value; zero percent set by DMSO-only wells. In outline: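 PathHunter beta-arrestin recruitment in CHO-K1 cells stably expressing ProLink-tagged GPR32. Cells were exposed to compound for 90 min at 37 C, then chemiluminescence was read after 1 h detection at ambient temperature; DMSO served as basal control.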
Sequence of UniProt O75388 (O75388 whole entry, looked up): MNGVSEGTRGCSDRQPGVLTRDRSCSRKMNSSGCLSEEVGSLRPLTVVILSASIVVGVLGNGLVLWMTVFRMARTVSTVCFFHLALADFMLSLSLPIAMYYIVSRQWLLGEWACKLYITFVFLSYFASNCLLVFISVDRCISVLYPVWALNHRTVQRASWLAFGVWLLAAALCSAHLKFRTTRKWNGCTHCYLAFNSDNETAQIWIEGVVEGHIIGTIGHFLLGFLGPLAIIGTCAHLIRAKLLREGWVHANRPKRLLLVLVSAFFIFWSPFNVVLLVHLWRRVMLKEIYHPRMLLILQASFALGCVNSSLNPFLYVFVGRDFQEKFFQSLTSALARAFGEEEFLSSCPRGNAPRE
In general terms: qHTS replaces the single test concentration by a dilution series.
With `O=C(NC1CCCCC1)c1ccc(Cn2c(SCc3ccccc3F)nc3cccnc32)cc1`, the activation was inactive: -20.6%.
For the compound `CSc1ncc2c(n1)-c1ccccc1N(Cc1ccc(Cl)cc1)S2(=O)=O`, the activation was inactive: -12.7%.
To `CCOC(=O)c1cnn(-c2ccc(C(=O)Nc3cc(OC)c(OC)c(OC)c3)cc2)c1N` belongs inactive: -2.62%.
For the compound `CC1CCN(S(=O)(=O)c2cn(CC(=O)Nc3cccc(C(F)(F)F)c3)c(=O)c3ccccc23)CC1`, the activation was inactive: -13.4%.
With `O=C(CSc1ccccc1)N1CCc2c([nH]c3ccccc23)C1c1ccc(F)cc1` (centres undefined), the activation is inactive: -35.8%.
`O=C(Cn1cc(C(=O)c2ccco2)c2ccccc21)Nc1ccc(Br)cc1`: the activation is inactive: 2.68%.
As to `COC(=O)c1cc2oc3ccccc3c2n1Cc1nc(-c2ccc(OC)cc2)oc1C`, the activation is inactive: -2.24%.
Consider `CCn1c(C(=O)NCCc2ccc(OC)c(OC)c2)cc2sc(Cl)cc21`, for which the activation is inactive: -11.6%.
Take `COc1ccc(Cl)cc1NC(=O)c1c(NCc2ccc(C)o2)sc2c1CCCCC2`: the activation was inactive: -13.2%.
To `CCCCNc1nc(Oc2ccc(OCC)nn2)nc(N2CCOCC2)n1` belongs inactive: 28.9%; to `COc1cccc(NC(=O)c2ccc3nc(CCc4ccccc4)oc3c2)c1`, inactive: -0.354%; to `CCC1CCCCN1C(=O)Cn1c(=O)n(CCCCCC(=O)NCc2ccccc2)c(=O)c2sccc21` (centres undefined), inactive: 2.01%.
For `CSc1ncc(Cl)c(C(=O)Nc2ccc(NC(C)=O)cc2)n1`, the activation was inactive: -49.3%.
Turning to `COc1cccc(CSc2nc3ccccc3c3nc(CCn4c(C)nc5ccccc54)nn23)c1`, the activation is inactive: -0.999%.
In the case of `CCCn1c2ccccc2c2cnn(CC(=O)N(C)c3ccc(F)cc3)c(=O)c21` it was inactive: 12.3%.
Consider `COc1ccc(-n2c(CC3C(=O)N(C)c4ccc(C)cc43)nc3ccccc3c2=O)cc1` (centres undefined), for which the activation is inactive: -12.8%.
Take `CCc1ccc(NC(=O)CN(c2ccc(OC)cc2)S(=O)(=O)c2c(C)[nH]c(=O)[nH]c2=O)cc1`: the activation was inactive: -13.7%.
In the case of `Oc1c(C(c2ccccc2Cl)N2CCCC2)sc2nc(-c3ccco3)nn12` (centres undefined) it was inactive: -13.5%; in that of `CC(=O)Nc1ccc(NC(=O)CSc2nc3ccccc3nc2N2CCOCC2)cc1`, inactive: -3.84%.
Consider `CCOc1ccc(N(CC(=O)NCc2ccccc2Cl)S(=O)(=O)c2c(C)[nH]c(=O)[nH]c2=O)cc1`, for which the activation is inactive: 1.73%.
Consider `COc1ccc(S(=O)(=O)N2CCC(Oc3ccc(-n4cnnn4)cc3)CC2)cc1OC`, for which the activation was inactive: -4.45%.
Consider `CCOc1ccc(C(=O)c2cn(Cc3ccccc3OC)c3ccc(F)cc3c2=O)cc1`, for which the activation is inactive: 1.09%.
To `Fc1ccc(CN2CCc3nc(Nc4ccccc4)ncc3C2)cc1F` belongs inactive: -26.9%; to `O=C(O)[C@H](O)c1ccccc1`, inactive: 0.969%; to `CN1C(=O)c2ccccc2Sc2ccc(NC(=O)COc3ccc(F)cc3)cc21`, inactive: 15.9%.
As for `Cc1nn(-c2ccccc2)c2nc(C3CC3)cc(C(=O)Nc3ccccc3F)c12`, the activation is inactive: -7.44%.
In the case of `COc1ccc(-c2noc(CNC(=O)c3ccco3)n2)cc1` it was inactive: -11.8%; in that of `O=C(NCc1ccco1)c1ccc2c(c1)N(Cc1cccc(Cl)c1)C(=O)c1ccccc1S2(=O)=O`, inactive: -29.1%.
In the case of `Cc1ccc(CNC(=O)CSc2cc(C)[nH]c(=O)n2)cc1` it was inactive: 20%.
In the case of `Cc1ccccc1C(=O)Nc1nnc(S(=O)(=O)N2c3ccccc3CC2C)s1` (centres undefined) it was inactive: 11.8%; in that of `COc1ccc(C2C(=O)N(C3CCCCCC3)CC(=O)N2Cc2ccc(C)cc2)cc1OC` (centres undefined), inactive: -30.5%; in that of `COc1cc(C(=O)N2CCC(c3nc4ccccc4o3)CC2)cc(OC)c1OC`, inactive: 8.16%.
As to `Cc1c(NS(=O)(=O)c2ccccc2)cc(C(C)C)c(O)c1S(=O)(=O)c1ccc(Cl)cc1`, the activation is inactive: 18.7%.
Turning to `CC1CCN(C(=O)CSc2nc(-c3ccccc3)no2)CC1`, the activation is inactive: 45.8%.
As for `C(=C\c1ccccc1)/CN1CCN(C(c2ccccc2)c2ccccc2)CC1`, the activation is inactive: -15.3%.
On to `COc1ccc(C(c2c(O)cc(C)n(Cc3ccco3)c2=O)N2CCCCC2)cc1OC` (centres undefined), for which the activation is inactive: -19.9%.
In the case of `CCOc1cccc(CC(=O)N2CCc3c([nH]c4ccccc34)C2c2ccc(Cl)cc2)c1OCC` (centres undefined), the activation was inactive: -27.4%.
To `COc1cc(Cl)c(C)cc1NC(=O)c1ccc2c(Cl)c3c(nc2c1)CCC3` belongs inactive: 21.4%; to `CCN(CC)CC(=O)Oc1ccc(NC(C)=O)cc1`, inactive: 0.159%; to `Cc1cc(C)c(NC(=O)CSc2nc3nc(C)cc(C)n3n2)c(C)c1`, inactive: -4.88%.
Take `Cc1cc(C)c(NC(=O)CSc2ccc(-c3sc(-c4ccccc4)nc3C)nn2)c(C)c1`: the activation was inactive: -0.235%.
With `CCn1c(=O)c2sccc2n2c(CCCC(=O)N3CCN(c4cc(Cl)ccc4C)CC3)nnc12`, the activation was inactive: -11.4%.
For `CCCCn1c(SCC(=O)NCCCOC)nc2c(sc3ccccc32)c1=O`, the activation was inactive: -15.4%.
On to `O=C(CSc1nc(-c2ccc(F)cc2)[nH]c1-c1ccccc1)NCC1CCCO1` (centres undefined), for which the activation is inactive: -10.1%.
`COc1ccc(-c2nnc(SCC(=O)NCc3ccc(C)cc3)nc2-c2ccc(OC)c(OC)c2)cc1OC`: the activation was inactive: -29.7%.
As for `CCc1ccc(C(=O)c2cn(CC(=O)Nc3ccc(OC)c(OC)c3)c3ccc(C)cc3c2=O)cc1`, the activation is inactive: -4.79%.
Consider `CCCCOc1cccc(C2c3c(oc4ccccc4c3=O)C(=O)N2c2ccccn2)c1` (centres undefined), for which the activation is inactive: -6.51%.
Take `CCS(=O)(=O)N1CCC(n2c(C(F)(F)F)nc3cccnc32)CC1`: the activation was inactive: 19.9%.
Regarding `COc1ccccc1N1CCN(c2ncccc2-c2nc(-c3ccc(Cl)cc3)no2)CC1`, the activation is inactive: -23.6%.
Take `O=C(CCN1N=C(c2ccccc2)CCC1=O)NCCc1ccc(Cl)cc1`: the activation was inactive: -30.1%.
Turning to `COCCN1C(=O)c2[nH]nc(-c3ccccc3O)c2C1c1ccc(Cl)c(Cl)c1` (centres undefined), the activation is inactive: -13.3%.
For `CCCC1=Nc2cc(C(=O)NC(C)c3ccccc3)ccc2Sc2ccc(C)cc21` (centres undefined), the activation was inactive: -14.5%.
For `Cc1nn(C(=O)c2c(F)cccc2F)c(C)c1S(=O)(=O)N1CCOCC1`, the activation is inactive: -3.6%.
With `O=c1c2c(-c3ccccc3)ccnc2[nH]n1-c1ccccc1`, the activation is inactive: -28.1%.
Take `Cc1ccc(CN(Cc2ccco2)C(=O)COc2cc(C)c(Cl)c(C)c2)cc1`: the activation was inactive: 8.98%.
On to `O=C(NCCc1ccccc1)c1cc(S(=O)(=O)N2CCCCC2)c[nH]1`, for which the activation is inactive: -7.49%.
In the case of `CCOC(=O)c1cnc2c(ccc3ccccc32)c1Nc1cccc(OC)c1`, the activation was inactive: -1.18%.
To `COc1ccc(CCNC(=O)c2ccc3c(c2)N(Cc2ccccc2F)C(=O)c2ccccc2S3(=O)=O)cc1OC` belongs inactive: -1.35%; to `Cc1ccc(NC(=O)/C=C/c2ccc(C)o2)c(C)c1`, inactive: -11.2%; to `Cc1cccc(N2CCN(C(=O)c3cc4c(=O)oc5ccccc5c4s3)CC2)c1C`, inactive: -4.47%.
As for `Cc1cc(C(F)F)n2nc(C(=O)Nc3c(C)cccc3C)nc2n1`, the activation was inactive: -33.3%.
Turning to `CCn1cc(CNC(=O)c2cc(-c3ccc(C)c(C)c3)nc3ccccc23)c(C)n1`, the activation is inactive: 14%.
As to `CC1CCCCN1C(=O)Cn1c(SCC(=O)N(C)c2ccccc2)nc2ccccc21` (centres undefined), the activation was inactive: 11.8%.
As to `Cc1ccc(NC(=O)c2ccc(=O)n(CC(=O)Nc3cccc(C)c3)n2)cc1`, the activation is inactive: -2.22%.
In the case of `Cc1ccc(NC(=O)c2ccc(NC(=O)N3CCSc4nc(C)cc(C)c43)cc2)c(Cl)c1` it was inactive: -9.46%; in that of `O=C(Cn1nc2c(cc1=O)CCCC2)Nc1ccccc1C(F)(F)F`, inactive: -12.9%.
To `COC(=O)c1ccccc1NC(=O)c1cc2nc(-c3ccc(OC)cc3)cc(C(F)(F)F)n2n1` belongs inactive: -5.3%; to `O=C(C1CCCCC1)N1CC(=O)N2CCc3ccccc3C2C1` (centres undefined), inactive: -7.88% and inactive: -17.6%; to `Cc1cccc(C(c2sc3nc(-c4ccco4)nn3c2O)N2CCN(c3ccccc3)CC2)c1` (centres undefined), inactive: -6.39%.
In the case of `O=C(CSc1n[nH]c(-c2ccccc2Cl)n1)N1CCN(c2ccccc2)CC1` it was inactive: -2.47%.
Take `Cc1ccc(C)c(NC(=O)c2ccc3nc(CCc4ccccc4)oc3c2)c1`: the activation is inactive: -36.1%.
As to `Cc1cc(NC(=O)c2cccs2)cc(-c2nc3cc(Cl)ccc3o2)c1O`, the activation is inactive: -2.97%.
With `CCCc1ccc(C2Sc3ccccc3NC3=C2C(=O)c2ccccc23)cc1` (centres undefined), the activation was inactive: -61.3%.
In the case of `CCOC(=O)CNS(=O)(=O)c1cc(-c2nnc(Nc3cccc(O)c3)c3ccccc23)ccc1C` it was inactive: -17.6%; in that of `CCC(=O)NCc1cc(-c2nn(C)c(=O)c3ccccc23)ccc1OC`, inactive: -9.54%.
`CCn1cc2nc(SCC(=O)Nc3ccc(C)cc3C)n(Cc3ccc(C)cc3)c(=O)c2n1`: the activation was inactive: -7.43%.
In the case of `CCc1ccc(Oc2c(C(F)(F)F)oc3c(CN4CCN(C)CC4)c(O)ccc3c2=O)cc1` it was inactive: -11.2%; in that of `O=C(Cn1cc(SCc2cccc(Cl)c2)c2ccccc21)N1CCCCCC1`, inactive: -36.2%.
Consider `Cc1ccccc1CNc1ncnc2c1ncn2C1OC(CO)C(O)C1O` (centres undefined), for which the activation is inactive: 1.43%.
Take `CCOc1ccccc1CNC(=O)c1cnc2sc(N3CCCCCC3)nn2c1=O`: the activation was inactive: -3.65%.
Regarding `O=C(NCCc1csc2nc(-c3ccc(F)cc3)nn12)c1cccc(C(F)(F)F)c1`, the activation is inactive: -2.12%.
With `COc1ccccc1CN(Cc1ccco1)c1cnc(S(C)(=O)=O)nc1C(=O)Nc1cc(C)ccc1C`, the activation was inactive: -14%.
In the case of `COc1cccc(CNC(=O)Cn2ncc3c4ccccc4n(Cc4ccccc4)c3c2=O)c1`, the activation was inactive: -12.8%.
For `COc1ccc(-n2ccn(CC(=O)NCCc3ccccc3)c(=O)c2=O)cc1OC`, the activation is inactive: -5.16%.
